Experimental data published in the supplement of paper PMC3334620.
Over roughly 33,000 sequences, “E-score (-0.5 to 0.5)” has its median near -0.011; the highest 2% begin near 0.28. This is one part of the list.

biological target: T1, Gcr1 (UniProt P07261); test: PBM E-score (8-mer binding enrichment) (E-score (-0.5 to 0.5)); higher = stronger / more preferred TF binding; most listed sequences are background and not binding sites; conditions: protein concentration: 100 nM; construct: GST-full length
T1 sequence: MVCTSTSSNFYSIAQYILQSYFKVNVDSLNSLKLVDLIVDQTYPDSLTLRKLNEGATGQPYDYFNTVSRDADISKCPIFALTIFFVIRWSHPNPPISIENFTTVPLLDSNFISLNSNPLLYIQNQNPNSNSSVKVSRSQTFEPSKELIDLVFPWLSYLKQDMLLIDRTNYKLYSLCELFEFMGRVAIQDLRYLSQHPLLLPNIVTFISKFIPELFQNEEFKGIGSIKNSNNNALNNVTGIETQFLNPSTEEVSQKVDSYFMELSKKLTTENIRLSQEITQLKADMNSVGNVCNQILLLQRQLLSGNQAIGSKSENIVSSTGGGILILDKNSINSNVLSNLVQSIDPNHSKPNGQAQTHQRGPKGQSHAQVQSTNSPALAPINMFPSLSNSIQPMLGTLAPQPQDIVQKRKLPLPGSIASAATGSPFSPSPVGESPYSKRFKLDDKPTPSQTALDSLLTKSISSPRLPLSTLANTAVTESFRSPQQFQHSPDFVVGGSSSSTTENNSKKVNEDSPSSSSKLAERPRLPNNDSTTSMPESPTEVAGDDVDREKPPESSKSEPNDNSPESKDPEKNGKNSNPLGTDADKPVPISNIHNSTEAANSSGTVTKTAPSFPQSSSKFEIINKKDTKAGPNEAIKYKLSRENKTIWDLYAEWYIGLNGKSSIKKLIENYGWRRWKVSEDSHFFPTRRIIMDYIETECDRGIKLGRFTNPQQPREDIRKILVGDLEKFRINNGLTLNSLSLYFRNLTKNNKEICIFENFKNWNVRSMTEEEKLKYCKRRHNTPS
Protocol: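 Universal 'all 10-mer' protein binding microarrays (Agilent AMADID 015681) probed with GST-tagged S. cerevisiae TFs (full-length or DBD) made by in vitro transcription/translation (PURExpress), about 100-200 nM. Bound TF was detected with fluorescent anti-GST. Each ungapped 8-mer (which stands for itself and its reverse complement) is scored by the PBM enrichment score (E-score), a modified Wilcoxon-Mann-Whitney statistic from -0.5 to +0.5, computed with the Universal PBM Analysis Suite. Scale: above 0.35 generally sequence-specific binding.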

Going from GGTGCCTA to CAATACAA, the “PBM E-score” value rises from 0.134 to 0.139.

First: AAAAGATT
Second: CAGAGCTA
The “PBM E-score” value of the first is higher: 0.0313 for the first, -0.204 for the second.

Compared with CGCACAAG, ACAGATGC is higher in “PBM E-score” value: -0.0834 for the first, 0.0196 for the second.

Compared with AGTGACTA, AACAAACC is lower in “PBM E-score” value: -0.0431 for the first, -0.28 for the second.

First: AACCGACT
Second: CGACTGCA
The “PBM E-score” value of the first is higher: -0.0108 for the first, -0.0389 for the second.

Compared with CATCTCCC, CTCACCCC is lower in “PBM E-score” value: -0.0806 for the first, -0.117 for the second.

Going from CGCCGCGA to GTTAACTA, the “PBM E-score” value falls from 0.0448 to 0.00411.

First: CGTCCCAA
Second: CCTCATAC
The “PBM E-score” value of the first is higher: -0.0449 for the first, -0.0756 for the second.

Compared with TCAGTAAA, CTCAAGAC is lower in “PBM E-score” value: -0.0235 for the first, -0.0606 for the second.

Compared with ACCTATAG, AGGCCATG is lower in “PBM E-score” value: 0.161 for the first, -0.179 for the second.

Going from GCAAAAAC to GTTGAAAA, the “PBM E-score” value rises from 0.0812 to 0.0974.

First: AAGGCGAG
Second: CAGTTCAG
The “PBM E-score” value of the first is higher: -0.0782 for the first, -0.125 for the second.

Going from AAAATTAC to ATGAAAAT, the “PBM E-score” value rises from -0.0115 to 0.033.

Going from TAAGAGGA to ATGGCCAC, the “PBM E-score” value falls from 0.0364 to -0.138.

Compared with CTGTAAGA, CCGTCTAA is lower in “PBM E-score” value: 0.0348 for the first, 0.0045 for the second.

Compared with CTGAAGAA, CTCACCAC is lower in “PBM E-score” value: 0.0978 for the first, -0.18 for the second.

First: TAACCTAA
Second: AACCGGTA
The “PBM E-score” value of the first is lower: 0.167 for the first, 0.201 for the second.

Going from ACCGTGTA to TAAGCTGA, the “PBM E-score” value rises from -0.163 to -0.144.

Going from CAATCCAC to GTATGCAA, the “PBM E-score” value falls from 0.0517 to 0.0117.

First: GAATTGGC
Second: ATAAACAT
The “PBM E-score” value of the first is lower: -0.0622 for the first, 0.064 for the second.

First: AGCTTTAG
Second: CCTTGGGC
The “PBM E-score” value of the first is higher: -0.159 for the first, -0.201 for the second.

First: CTCTAGAA
Second: GGGAGAGA
The “PBM E-score” value of the first is higher: 0.0655 for the first, -0.166 for the second.

Going from ATCGAATA to AGCTGCCT, the “PBM E-score” value rises from -0.089 to 0.32.

First: CCACCAGA
Second: TAAATTCA
The “PBM E-score” value of the first is higher: 0.0834 for the first, -0.0731 for the second.

First: GTACATCA
Second: TCATATAA
The “PBM E-score” value of the first is lower: -0.0283 for the first, 0.125 for the second.

Compared with GCGTGTAA, CGCCCTAC is lower in “PBM E-score” value: 0.196 for the first, -0.0181 for the second.

First: AACAACTC
Second: CGACGTAC
The “PBM E-score” value of the first is higher: -0.00268 for the first, -0.0854 for the second.

Compared with CGTAGACG, GTCGAAGA is higher in “PBM E-score” value: -0.0412 for the first, -0.0273 for the second.

Compared with ACGGTCCG, GGGCACAA is higher in “PBM E-score” value: -0.105 for the first, -0.0282 for the second.

Compared with CCAGATCC, GGCAAACA is lower in “PBM E-score” value: 0.185 for the first, -0.14 for the second.

Going from CGTGCAAA to GAGAGTGC, the “PBM E-score” value rises from -0.183 to -0.155.

First: ACGTCGAG
Second: GAACGTGC
The “PBM E-score” value of the first is lower: -0.215 for the first, -0.137 for the second.

Compared with CCCATTAG, ATATGAGA is higher in “PBM E-score” value: -0.0149 for the first, 0.143 for the second.

First: ACTAATTG
Second: ACCGCAAG
The “PBM E-score” value of the first is higher: 0.0974 for the first, -0.0529 for the second.

Compared with CTTTGTCA, GCCCCAAA is higher in “PBM E-score” value: -0.0504 for the first, 0.0887 for the second.

Going from GGCAGACA to TCGCTTCA, the “PBM E-score” value rises from -0.0708 to 0.00199.

Compared with ATAACGTC, GCTTGAAA is lower in “PBM E-score” value: 0.0192 for the first, -0.0704 for the second.

First: GCGCTTCC
Second: CGACCTAG
The “PBM E-score” value of the first is higher: 0.348 for the first, -0.0399 for the second.

First: AATACACC
Second: AGACTTCC
The “PBM E-score” value of the first is higher: 0.0929 for the first, 5e-05 for the second.

Going from AGGAATGG to GATCATAC, the “PBM E-score” value falls from 0.0654 to -0.0831.

Going from ATTCTACC to GATGACCA, the “PBM E-score” value rises from -0.0245 to 0.0452.

Compared with CACATATC, ATCTGAGA is higher in “PBM E-score” value: -0.0664 for the first, 0.0934 for the second.

Going from CAAAATAA to ACGTCCTC, the “PBM E-score” value falls from 0.183 to -0.112.

Going from AGATACGC to ACATGTGA, the “PBM E-score” value falls from 0.15 to -0.0765.

First: CAGGGTGG
Second: CTGTTGAC
The “PBM E-score” value of the first is higher: 0.00462 for the first, -0.0113 for the second.

Going from ACTTTATA to ATACAAGC, the “PBM E-score” value falls from 0.234 to 0.0736.

Compared with CGACTGGC, TACGGATA is higher in “PBM E-score” value: -0.241 for the first, 0.06 for the second.

Going from GCTCGGTA to AGCATAAC, the “PBM E-score” value rises from -0.0759 to -0.0523.

Compared with GTCAGGGA, ATGTTCGA is higher in “PBM E-score” value: -0.122 for the first, -0.00159 for the second.

First: ATTGACTC
Second: CGCAACGC
The “PBM E-score” value of the first is lower: 0.0405 for the first, 0.104 for the second.

Compared with GCGCACAC, CAGATTTC is higher in “PBM E-score” value: -0.128 for the first, -0.107 for the second.

First: GGGGATAC
Second: CAAGTCAC
The “PBM E-score” value of the first is higher: 0.0984 for the first, -0.0286 for the second.

Compared with GAGCACCC, ACAGTTTA is lower in “PBM E-score” value: 0.329 for the first, 0.122 for the second.

First: AGTCAAAG
Second: ACGCACAA
The “PBM E-score” value of the first is lower: -0.229 for the first, -0.129 for the second.

First: AATGAAGG
Second: GACTGCCA
The “PBM E-score” value of the first is lower: -0.12 for the first, 0.0609 for the second.

Going from GCCGCCCA to ACGTGCCC, the “PBM E-score” value falls from 0.0396 to 0.0348.

First: GGCTTTCA
Second: CGTTGGAG
The “PBM E-score” value of the first is lower: -0.109 for the first, -0.106 for the second.

Going from GTTTCACA to CGGATTAC, the “PBM E-score” value falls from 0.0174 to -0.0413.

First: CACGCCTA
Second: CCTAGAGC
The “PBM E-score” value of the first is lower: -0.094 for the first, 0.0413 for the second.

First: ATGAAAGC
Second: AGGCACGA
The “PBM E-score” value of the first is higher: -0.00357 for the first, -0.0558 for the second.

Compared with CAGAGAAC, TTAGGGAA is higher in “PBM E-score” value: -0.0834 for the first, 0.205 for the second.

Going from TCTCTACA to GCGGTCCC, the “PBM E-score” value rises from -0.12 to -0.0174.

First: AACAAACG
Second: AGTCTGGA
The “PBM E-score” value of the first is higher: 0.0298 for the first, -0.0476 for the second.

Compared with CCTCGATA, AATCAGAA is higher in “PBM E-score” value: 0.0184 for the first, 0.181 for the second.

Compared with GGACTGAC, ATCTCCAT is higher in “PBM E-score” value: -0.287 for the first, -0.101 for the second.

First: AATTTGAG
Second: ATTTATTA
The “PBM E-score” value of the first is higher: 0.137 for the first, 0.0873 for the second.

First: TTTGAAAA
Second: ACAAGCTC
The “PBM E-score” value of the first is higher: 0.0876 for the first, -0.215 for the second.

First: CGAAGGAC
Second: CACTGTCG
The “PBM E-score” value of the first is higher: -0.0446 for the first, -0.166 for the second.

Compared with GGCCAGCC, GACTAGTA is higher in “PBM E-score” value: -0.296 for the first, 0.113 for the second.

Compared with ACCCCCCG, ACTATTTC is higher in “PBM E-score” value: -0.111 for the first, 0.104 for the second.

Going from GATATCAC to CGTTGCAC, the “PBM E-score” value falls from -0.0191 to -0.121.

Going from ACAGTTCG to AATTCGAC, the “PBM E-score” value falls from -0.125 to -0.176.

Going from CGCACCGA to CCGTTTCG, the “PBM E-score” value rises from -0.244 to -0.0553.

Compared with CCACTGAC, TGGACAAA is higher in “PBM E-score” value: -0.0793 for the first, 0.0886 for the second.

Going from CCTGTAGC to CTCTGGGC, the “PBM E-score” value falls from 0.19 to 0.0201.

Compared with GCCTTAAC, ACCCTACC is higher in “PBM E-score” value: -0.219 for the first, -0.183 for the second.

Compared with TACGATGA, AGAGCGTA is lower in “PBM E-score” value: -0.125 for the first, -0.19 for the second.

Compared with CTTGTGCA, ATCGAGAG is lower in “PBM E-score” value: 0.0382 for the first, 0.0256 for the second.

First: AGTGAGCA
Second: CGAACCGC
The “PBM E-score” value of the first is lower: -0.188 for the first, -0.0735 for the second.

First: TATCATAA
Second: CGACGCGC
The “PBM E-score” value of the first is lower: -0.0405 for the first, 0.0401 for the second.

First: GACGCGCA
Second: AATGACGC
The “PBM E-score” value of the first is higher: -0.0116 for the first, -0.155 for the second.

Compared with AACACCGG, CGAGGCGC is higher in “PBM E-score” value: 0.0694 for the first, 0.196 for the second.

Compared with AACCGGGG, AGGGGTAA is lower in “PBM E-score” value: 0.0848 for the first, -0.138 for the second.

Going from ACAGGACT to AAGATGGT, the “PBM E-score” value rises from -0.0157 to 0.0834.

First: GATAGATA
Second: GATCAGGA
The “PBM E-score” value of the first is lower: 0.11 for the first, 0.172 for the second.

First: TGTGAAAA
Second: AAGGAACT
The “PBM E-score” value of the first is lower: -0.00217 for the first, 0.0335 for the second.
